Consider 115 sequences from the BET-seq Pho4 binding data (Le et al. 2018).

The other results are listed elsewhere or left out. These are noisy estimates, calculated here from bound and input reads.

The assay has as its target T1, Pho4 (S. cerevisiae) (UniProt P07270).
T1 sequence: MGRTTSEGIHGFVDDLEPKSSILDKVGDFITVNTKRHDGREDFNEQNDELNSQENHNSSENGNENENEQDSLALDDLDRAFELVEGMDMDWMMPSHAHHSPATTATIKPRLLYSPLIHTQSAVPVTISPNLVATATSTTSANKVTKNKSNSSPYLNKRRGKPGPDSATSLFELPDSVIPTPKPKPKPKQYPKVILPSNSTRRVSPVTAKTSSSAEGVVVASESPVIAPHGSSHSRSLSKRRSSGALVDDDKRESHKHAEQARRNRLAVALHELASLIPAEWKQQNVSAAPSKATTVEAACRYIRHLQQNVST
As to the kind of experiment: relative binding free energy (BET-seq); higher = weaker binding. Conditions: reference: library average.
For TAATACACGTGTAGGG, the “relative binding free energy” value is -0.06 kcal/mol.

Take CGTTACACGTGTGGGG: the “relative binding free energy” value turned out to be 0.18 kcal/mol. Turning to ACATGCACGTGGCGTG, the “relative binding free energy” value is -0.16 kcal/mol.

In the case of TGGTTCACGTGGCCTG, the “relative binding free energy” value came out at 0.26 kcal/mol. The same measure for GATATCACGTGCGAGG: 0.4 kcal/mol. CTGTTCACGTGTAAGG: the “relative binding free energy” value amounted to 0.32 kcal/mol. With TTTAGCACGTGAGAGG, the “relative binding free energy” value was 0.37 kcal/mol. For TGAGGCACGTGGTTAA the value was -0.26 kcal/mol; for GCTCTCACGTGGGGAG, 0.29 kcal/mol; for GTATACACGTGGGTCT, -0.07 kcal/mol.

TGTATCACGTGTTGAA: the “relative binding free energy” value was 0.1 kcal/mol.

For TGATACACGTGTAAGG, the “relative binding free energy” value was found to be 0.03 kcal/mol. With GTATTCACGTGCGTAT, the “relative binding free energy” value was found to be 0.15 kcal/mol.

Consider TTTCTCACGTGGTATG, for which the “relative binding free energy” value was found to be 0.09 kcal/mol. Consider GTTATCACGTGCTGTT, for which the “relative binding free energy” value is 0.07 kcal/mol.

For the sequence AGTGACACGTGGGGGA, the “relative binding free energy” value was -0.15 kcal/mol. TGGTGCACGTGTAATA: the “relative binding free energy” value is 0.02 kcal/mol. Take TGAGTCACGTGAGAGT: the “relative binding free energy” value came to 0.38 kcal/mol. The same measure for TTCAACACGTGGTTGT: -0.07 kcal/mol; for ATCGCCACGTGGGTTG: -0.23 kcal/mol; for GTGTTCACGTGCAGTA: 0.15 kcal/mol.

For the sequence AAAAGCACGTGTTGTA, the “relative binding free energy” value is -0.13 kcal/mol. For AGTTGCACGTGGTGGG the value was -0.04 kcal/mol. In the case of TGTAACACGTGTAATG, the “relative binding free energy” value was 0.04 kcal/mol. On to CTGTGCACGTGTGTGT, for which the “relative binding free energy” value is 0 kcal/mol. With GTGTTCACGTGTTACT, the “relative binding free energy” value stood at 0.25 kcal/mol. The same measure for CTTTTCACGTGGCGGT: 0.07 kcal/mol; for CTTGACACGTGGGTTC: -0.08 kcal/mol; for GTTAACACGTGAGGTC: 0.29 kcal/mol. The same measure for TCATGCACGTGAGGAG: 0.24 kcal/mol; for GTCGTCACGTGGGAGT: 0.16 kcal/mol; for TGTTCCACGTGAGTGG: 0.18 kcal/mol.

In the case of AATTCCACGTGGTTAG, the “relative binding free energy” value was determined as 0.1 kcal/mol. In the case of TTGAGCACGTGCGGCA, the “relative binding free energy” value is -0.05 kcal/mol.

In the case of CGGGGCACGTGATAGC, the “relative binding free energy” value was -0.01 kcal/mol.

TCGTTCACGTGTTGGC: the “relative binding free energy” value was found to be 0.46 kcal/mol. The same measure for GAGTTCACGTGGTGTT: 0.22 kcal/mol. For TTGCTCACGTGGGTAG the value was 0.18 kcal/mol. For ATGGACACGTGGTAAA the value was 0.04 kcal/mol. With CTATGCACGTGGTTGA, the “relative binding free energy” value is -0.09 kcal/mol. The same measure for TGTAACACGTGTAAAG: 0.12 kcal/mol.

TAGTTCACGTGTTTGC: the “relative binding free energy” value worked out at 0.23 kcal/mol. As for ATTGTCACGTGTGGAG, the “relative binding free energy” value stood at 0.23 kcal/mol. The same measure for TGTTCCACGTGTGGCG: 0.12 kcal/mol. Regarding TTGAGCACGTGATAGT, the “relative binding free energy” value was 0.05 kcal/mol. For ACTTGCACGTGAAGGG, the “relative binding free energy” value was 0.19 kcal/mol.

With AGGATCACGTGTGGCT, the “relative binding free energy” value was determined as 0.14 kcal/mol. The same measure for TGAAACACGTGGAAGG: 0.18 kcal/mol; for ATCTTCACGTGGGGCG: 0.14 kcal/mol; for TTCGTCACGTGTCGTT: 0.13 kcal/mol. The same measure for AGACTCACGTGGATGT: 0.34 kcal/mol; for AGATGCACGTGTGGTC: -0.03 kcal/mol; for GTGATCACGTGTGGTT: 0.19 kcal/mol. With TATTGCACGTGCTTTA, the “relative binding free energy” value is -0.13 kcal/mol. AAGTACACGTGGTAGT: the “relative binding free energy” value worked out at 0.08 kcal/mol. The same measure for GATGCCACGTGAGTGG: 0.22 kcal/mol; for ATTGGCACGTGGTATG: -0.14 kcal/mol; for AGGCGCACGTGGTGTC: -0.22 kcal/mol. The same measure for GGTGCCACGTGGGTTG: -0.11 kcal/mol; for GCGTTCACGTGGGTTC: 0.39 kcal/mol. For CTTGTCACGTGGGCGT, the “relative binding free energy” value is -0.07 kcal/mol.

Regarding TCGGACACGTGAGTTG, the “relative binding free energy” value stood at 0.42 kcal/mol. For TACGGCACGTGTAGTA the value was 0.18 kcal/mol; for GACTTCACGTGATGTT, 0.43 kcal/mol. For the sequence TCGGGCACGTGACGTT, the “relative binding free energy” value is -0.02 kcal/mol. For GTATGCACGTGCTGGT the value was -0.17 kcal/mol; for GTGGACACGTGTAAAT, 0.39 kcal/mol. On to GTCTACACGTGGGGGC, for which the “relative binding free energy” value was -0.02 kcal/mol. For GGATACACGTGGGTCA the value was -0.01 kcal/mol; for AGAAGCACGTGGGATT, -0.06 kcal/mol; for TTTTTCACGTGTAGCA, 0.33 kcal/mol. As to GGGCTCACGTGCTGGA, the “relative binding free energy” value stood at 0.32 kcal/mol. For TCTTTCACGTGATTAG the value was 0.34 kcal/mol; for CTTTGCACGTGCGTTG, -0.22 kcal/mol. As for AGAGGCACGTGACTGT, the “relative binding free energy” value was -0.06 kcal/mol. Take ACGTGCACGTGTGTGG: the “relative binding free energy” value was -0.08 kcal/mol. GGCGTCACGTGGTGTT: the “relative binding free energy” value was 0.12 kcal/mol. For CGGTTCACGTGGTGAG the value was 0.24 kcal/mol; for ATGTGCACGTGACATG, 0.08 kcal/mol.

Turning to AGAGTCACGTGTTTTG, the “relative binding free energy” value stood at 0.28 kcal/mol.

TAATGCACGTGTAGCG: the “relative binding free energy” value was -0.08 kcal/mol. The same measure for TGCTACACGTGAGGAT: 0.22 kcal/mol; for GATGTCACGTGAGTTG: 0.26 kcal/mol.

On to TCTTTCACGTGGGTAC, for which the “relative binding free energy” value was 0.17 kcal/mol. The same measure for TAAGTCACGTGTATAA: 0.09 kcal/mol; for TAATTCACGTGAGGCG: 0.24 kcal/mol; for ATCGGCACGTGTGTAG: -0.12 kcal/mol.

Consider GTTGACACGTGGGTCG, for which the “relative binding free energy” value was -0.04 kcal/mol. CGAGGCACGTGGTAAG: the “relative binding free energy” value was -0.16 kcal/mol. The same measure for AGATTCACGTGTAATG: 0.29 kcal/mol. As to TTGGACACGTGTGAGT, the “relative binding free energy” value stood at 0.13 kcal/mol. For TTATACACGTGGGTAG the value was -0.16 kcal/mol. Take TTGTGCACGTGGGAAA: the “relative binding free energy” value was -0.02 kcal/mol. For GGTGTCACGTGCGGTG the value was 0.18 kcal/mol; for GAGAGCACGTGAGTGT, 0.14 kcal/mol.

In the case of TATATCACGTGAAGTC, the “relative binding free energy” value was 0.43 kcal/mol.

Take GTGTGCACGTGCGTGT: the “relative binding free energy” value is -0.02 kcal/mol. The same measure for TAGGCCACGTGTGGCT: 0.08 kcal/mol; for AACTGCACGTGGGTAT: -0.17 kcal/mol. The same measure for GTCGTCACGTGTGGCG: 0.07 kcal/mol. As to AAGGGCACGTGTTGTC, the “relative binding free energy” value is -0.06 kcal/mol. For TAGGGCACGTGGCCTT the value was -0.18 kcal/mol. For TTCGGCACGTGGGGAA the value was -0.12 kcal/mol; for TCTGTCACGTGGAGTT, 0.19 kcal/mol. Turning to GGCGACACGTGTTTGT, the “relative binding free energy” value is 0.19 kcal/mol. For AGTGGCACGTGACGCG, the “relative binding free energy” value worked out at 0.04 kcal/mol. For GCGTGCACGTGAGTGA the value was 0.26 kcal/mol; for CGGAACACGTGGGCGG, -0.06 kcal/mol.

In the case of TGGGACACGTGATGGA, the “relative binding free energy” value came out at 0.13 kcal/mol. For the sequence TATATCACGTGCGGTG, the “relative binding free energy” value was -0.04 kcal/mol.

GTGTTCACGTGTGTTA: the “relative binding free energy” value was found to be 0.31 kcal/mol.

Turning to TTAGTCACGTGAATGT, the “relative binding free energy” value amounted to 0.21 kcal/mol.

As for CTAGTCACGTGGGTCA, the “relative binding free energy” value is 0.02 kcal/mol. For CGTGGCACGTGTATTG the value was -0.05 kcal/mol; for GTGTCCACGTGTTAAT, 0.15 kcal/mol.
